In PubChem BioAssay AID1745845 (National Center for Advancing Translational Sciences (NCATS), 2022):
Out of some 360,000 compounds screened, about 2,600 (0.72%) were called active. Inconclusive means that the source gave no clear call. Such entries were picked first, then a sample of the others. The call rests on the fitted dose curve; in most records, active means well fitted inhibition curve with a large enough effect; inconclusive means small, poorly fitted or top-dose-only effect; inactive means no such curve, though single readings can be large or run the other way. Potencies of inconclusive entries are doubtful fits and often do not repeat.

Experiment: Primary qHTS for Inhibitors of ATXN expression; further: nearly all actives have a fitted effect of over 55% in size
Settings: HEK-293 ATXN2-luciferase reporter, luminescence, 24 h; activity change, negative = inhibition: at 57 µM (top of the series)
Outline: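 qHTS (up to 57 uM final) was run with 24 h compound exposure of reporter cells at 37 °C. Each well was multiplexed: SteadyGlo luminescence measured ATXN2-luciferase expression after a fluorogenic Gly-Phe-AFC viability readout (25 uM final).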
On the % scale 0 is the no-effect control and ±100 the full control effect; potency means the concentration at half of the fitted maximal effect; tags describe the fitted curve by direction and shape.

SMILES | Potency | activity change, negative = inhibition
CCOc1ccc(C(=O)CCC(=O)N2CCN(c3ccc(O)cc3)CC2)cc1 | inconclusive: 7.94 µM [inhibitor, full curve, poor fit] | –
CC(=O)c1nn(-c2ccc(Cl)cc2)cc1C(=O)c1ccc(C)cc1 | inconclusive: 10 µM [inhibitor, partial curve, poor fit] | –
Cc1ccc(-n2ncc3c(N4CCCCCC4)ncnc32)cc1 | inconclusive: 10 µM [inhibitor, partial curve, poor fit] | –
CC(C)(C)c1cc(C(=O)Nc2cccnc2)cc(C(=O)Nc2cccnc2)c1 | – | inactive: -12.6%
COc1cccc(/C=N/Nc2cc(C)nc(-c3ccccc3O)n2)c1O | inconclusive: 1.12 µM [inhibitor, partial curve, poor fit] | –
O=C(CSc1nccc2ccccc12)N1CCN(Cc2ccc3c(c2)OCO3)CC1 | – | inactive: 0.031%
Cc1cc(C)c(COCc2cc(/C=N/O)c(C)cc2C)cc1/C=N/O | inconclusive: 39.8 µM [inhibitor, single point] | –
Cc1ccc(NC(=O)c2cc(S(=O)(=O)NCCC3=CCCCC3)ccc2F)cc1F | inconclusive: 14.1 µM [inhibitor, partial curve, poor fit] | –
Nc1ccn([C@@H]2O[C@H](CO)[C@@H](O)C2O)c(=O)n1 (some centres not stated) | inconclusive: 8.91 µM [inhibitor, partial curve] | –
CCCN(C(=O)c1cc2c(s1)-c1ccccc1OC2)c1ccccc1F | inconclusive: 28.2 µM [inhibitor, single point] | –
O=C(CCNC(=O)C1CCN(S(=O)(=O)c2ccccc2)CC1)Nc1ccccc1 | – | inactive: -1.59%
COc1ccc(COc2ccccc2C(=O)NCc2ccccc2)cc1F | inconclusive: 11.2 µM [inhibitor, partial curve, poor fit] | –
CC(C)CNc1ncnc2c1ncn2[C@H]1CN(Cc2ccc(-c3ccccc3)cc2)C[C@@H](CO)O1 | inconclusive: 17.8 µM [inhibitor, partial curve] | –
Cc1cccc(N2CCN(C(=O)CCN3C(=S)NC(C)(C)CC3C)CC2)c1C (configuration not stated) | – | inactive: -31.5%
O=C(CCN1CCN(C(c2ccccc2)c2ccccc2)CC1)N/N=C/c1ccc(O)cc1O | inconclusive: 10 µM [inhibitor, partial curve] | –
COC(=O)c1ccc(N2CCN(C(C)=O)CC2)c(NC(=O)COc2ccccc2C)c1 | – | inactive: -13.3%
Cn1c(SCC(=O)N/N=C/c2cc([N+](=O)[O-])ccc2O)nnc1-c1ccccc1 | inconclusive: 8.91 µM [inhibitor, partial curve, poor fit] | –
CCc1ccccc1NS(=O)(=O)c1ccc(OC)c2ncccc12 | inconclusive: 39.8 µM [inhibitor, single point] | –
CC1CC(C)CN(S(=O)(=O)c2ccc(C(=O)Nc3nnc(-c4cccs4)o3)cc2)C1 (configuration not stated) | inconclusive: 25.1 µM [inhibitor, partial curve] | –
CCN(CC)c1ccc(C(=C2C=CC(=[N+](CC)CC)C=C2)c2cc(S(=O)(=O)O)ccc2S(=O)(=O)[O-])cc1 | active: 11.2 µM | –
O=C(Nc1ccc(F)c(Cl)c1)C1Cc2c(-c3ccccc3Oc3ccccc3)ccnc2O1 (configuration not stated) | inconclusive: 39.8 µM [inhibitor, partial curve, poor fit] | –
Cn1c(=O)n(-c2ccc(F)c(Cl)c2)c(=O)c2sc3ccccc3c21 | – | inactive: 11%
CCOC(=O)c1c(Nc2ccc(C)cc2)nnc(-c2ccccc2)c1-c1ccccc1 | – | inactive: 0%

SMILES | Potency | activity change, negative = inhibition
COc1cc(/C=N/n2cnnc2)ccc1OCCOc1ccccc1 | – | inactive: 6.74%
CCOC(=O)COc1ccc(-c2nnc(-c3ccccc3)o2)cc1 | – | inactive: -14.5%
CC1=C(C(=O)OC2CCCCCC2)C(c2c(F)cccc2Cl)CC(=O)N1 (configuration not stated) | inconclusive: 39.8 µM [inhibitor, single point] | –
CCOC(=O)c1[nH]cnc1N=Nc1c(O)ccc2ccccc12 | active: 11.2 µM | –
O=C(O)c1ccc2c(c1)nc(Nc1cccc(Cl)c1)c1ccncc12 | active: 9.68 µM | –
CCCCCc1cc(=O)oc2c(C(CCN3CCCCC3)c3cc(OC)c(OC)c(OC)c3)c(OC)cc(OC)c12 (configuration not stated) | active: 31.6 µM | –
CCOc1ccc(OCCN(C)Cc2ccccc2)cc1 | inconclusive: 39.8 µM [inhibitor, partial curve, poor fit] | –
Fc1cc(F)cc(Nc2nc(Cl)nc(NC3CCCC3)n2)c1 | inconclusive: 31.6 µM [inhibitor, single point] | –
CCNC(=S)N(CCc1c(C)[nH]c2ccc(C)cc12)Cc1ccco1 | inconclusive: 22.4 µM [inhibitor, partial curve] | –
Nc1nc(Nc2cccc(Cl)c2)nc(NCc2ccco2)c1[N+](=O)[O-] | inconclusive: 39.8 µM [inhibitor, single point] | –
Cc1ccccc1OCC(=O)N/N=C/c1cccc2cccnc12 | inconclusive: 39.8 µM [inhibitor, single point] | –
O=C(CCN1C(=O)/C(=C/c2cccs2)SC1=S)N1CCCCC1 | inconclusive: 15.8 µM [inhibitor, partial curve, poor fit] | –
Cc1cc(C)cc(C(=O)NC(=S)Nc2ccc(-c3cc4ccccc4oc3=O)cc2)c1 | active: 6.31 µM | –
COc1ccc(CCNC(=O)c2cc3c(-c4ccccc4F)nn(C)c3s2)c(OC)c1 | – | inactive: -28.3%
O=C(Nc1ccc(-c2cn3ccsc3n2)cc1)C1COc2ccccc2O1 (configuration not stated) | inconclusive: 39.8 µM [inhibitor, single point] | –
COc1ccc(C(=O)/C=C/c2cn(CC(O)CN3CCN(C)CC3)c3ccccc23)cc1OC (configuration not stated) | – | inactive: 1.25%
O=C(CC1Sc2ccc(C(F)(F)F)cc2NC1=O)Nc1ccc(Cl)c(C(F)(F)F)c1 (configuration not stated) | inconclusive: 31.6 µM [inhibitor, single point] | –
CCOC(=O)C1CCCN(c2ncnc3c2cnn3-c2ccc(Cl)cc2)C1 (configuration not stated) | inconclusive: 22.4 µM [inhibitor, single point] | –
COC(=O)C(Cc1cccc(C)n1)(c1ccccc1)c1ccccc1 | inconclusive: 22.4 µM [inhibitor, partial curve, poor fit] | –
COc1ccc(C(=O)N2[C@@H](C(C)C)COc3cc(Br)ccc3S2(=O)=O)cc1 | inconclusive: 31.6 µM [inhibitor, partial curve, poor fit] | –
Cc1cc(C)c2cc3c(N)c(C(=O)N4CCOCC4)sc3nc2c1 | – | inactive: 51.1%
CC(C)C[C@H](NC(=O)c1[nH]cnc1C(=O)N[C@@H](C)c1ccccc1)C(=O)OC(C)(C)C | inconclusive: 39.8 µM [inhibitor, single point] | –
Cc1ccc(NC(=O)c2ccc(NS(=O)(=O)/C=C/c3ccccc3)cc2)nc1 | – | inactive: -4.21%

SMILES | Potency | activity change, negative = inhibition
CCOc1ncccc1C(=O)Nc1ccc(Cl)c(S(=O)(=O)N2CCCC2)c1 | – | inactive: -24.6%
COc1ccccc1-n1nnnc1SCc1cc2c(cc1Br)OCO2 | inconclusive: 14.1 µM [inhibitor, partial curve, poor fit] | –
CCCCCCN1N=C(C)C(C(=O)c2ccc(Cl)cc2)C1=O (configuration not stated) | inconclusive: 22.4 µM [inhibitor, partial curve, poor fit] | –
COc1cccc(/C=N/NC(=O)CO/N=C(\C)c2cccs2)c1OC | – | inactive: 1.69%
O=C(c1cc(-c2ccc(Cl)s2)nc2ccccc12)N1CCCC1 | – | inactive: 1.81%
COC(=O)[C@@]12CCCCN1[C@H](c1ccc(-c3ccc(OC)cc3)cc1)[C@@H]1C(=O)N(C)C(=O)[C@@H]12 | inconclusive: 22.4 µM [inhibitor, single point] | –
COc1ccc(CNC(=O)NCCc2c[nH]c3ccccc23)cc1 | inconclusive: 3.16 µM [inhibitor, single point] | –
COc1ccc(/C=N/NC(=O)c2nn(C)cc2Br)cc1CSCc1ccco1 | – | inactive: 4.91%
NNc1nnc2c3cc(F)ccc3n(CCc3ccccc3)c2n1 | – | inconclusive: -62.1% [inhibitor]
CC(C)(C)C1CCC(CN2C(Nc3ccccc3)=NC[C@@H]2Cc2ccccc2)CC1 (some centres not stated) | inconclusive: 31.6 µM [inhibitor, single point] | –
CN(C)S(=O)(=O)N1CCC(Oc2cccc(C(=O)NCCC3=CCCCC3)c2)CC1 | inconclusive: 31.6 µM [inhibitor, single point] | –
CCN(CC)CCCCN1c2ccccc2Sc2ccccc21 | inconclusive: 2.82 µM [inhibitor, partial curve, poor fit] | –
COc1cc(OC)c2c(-c3ccccc3)cc(=O)oc2c1C(CCN1CCCC(C)C1)c1ccc(N(C)C)cc1 (configuration not stated) | inconclusive: 39.8 µM [inhibitor, single point] | –
O=c1cc(N2CCCCC2)c(-c2ccccc2)nn1Cc1ccccc1 | – | inactive: -12.5% [at 11.3 µM]
CC1(Cc2ccc(Cl)cc2)C(=O)Nc2ccc(-c3ccc(F)c(Cl)c3)cc21 (configuration not stated) | inconclusive: 28.2 µM [inhibitor, single point] | –
Cc1cc(=O)n2c3ccccc3n(CC(O)CN3CCCCC3)c2c1C#N (configuration not stated) | inconclusive: 12.6 µM [inhibitor, partial curve] | –
CCN1C/C(=C/c2ccc(N3CCOCC3)cc2)C(=O)/C(=C/c2ccc(N3CCOCC3)cc2)C1 | active: 22.4 µM | –
Cc1csc(=O)n1CC(=O)Nc1ccc(Cl)c(Cl)c1 | – | inactive: -4.38%
COc1ccc([C@H]2C[C@H](O)[C@@H](n3cc(-c4ccc(F)cc4)nn3)CN2Cc2cccs2)cc1 | active: 15.8 µM | –
Cc1cc(/C=C(\C#N)C(=O)O)c(C)n1C1CC1 | inconclusive: 5.62 µM [inhibitor, single point] | –
O=C1NC[C@H](Cc2ccccc2)N(C[C@H]2CCCN2C[C@H](Cc2ccccc2)N2C[C@H](Cc3ccc(O)cc3)N(CC3CCCCCC3)C(=O)C2=O)C1=O | inconclusive: 39.8 µM [inhibitor, single point] | –
